# ± gives the standard deviation of the averaged measurements. The list shows a part of the results.
# System: PfAP2-I AP2 domain 3 (GST-tagged)
# Experiment: gcPBM binding intensity (ln(normalized median fluorescence intensity)); higher = stronger DNA binding
# Summary of the method: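 DNA-binding domains from P. falciparum, fused to GST and produced in E. coli, were put on an Agilent 4 × 180k double-stranded probe array for 1 h in 1× PBS holding 1% milk, 0.2 mg/ml BSA, 0.5% salmon testes DNA and 0.03% Triton X-100. Probes were primer-extended, 36 bp long and drawn from intergenic genomic regions, with negative controls included. After Alexa488 anti-GST antibody detection and a 488 nm scan, binding intensity was set as the highest Masliner-normalised natural-log median intensity across replicate spots of either probe orientation.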
row,Sequence,gcPBM binding intensity (ln)
1,ACGCTAATTATGTGCACACAAATTAAAGGTCTACAA [CACACA_site147],10.65 ± 0.057
2,TGTTTCTGCTCTGGACATTTTTAAAAAAGGGAAAGC [CACACA_negctrl_site1463],8.18 ± 0.4
3,ACAAAAAAACATGAAACACACACAAATATATATATA [CACACA_site8566],9.08 ± 0.13
4,TGCCTATTTTGGATGTGTACACATATATATATTTAT [XGTACX_site6741],8.22 ± 0.25
5,AAAAAAAAAAAAAACACACACACAAGAGTATATAAA [CACACA_site6580],8.21 ± 0.53
6,ATGAATTTATTACATTGTACATTTTTAAAAGGTTAC [XGTACX_site124],7.75 ± 0.42
7,TTATATATTTTTTTTTGTACATAGAAGAGGGAAAAA [XGTACX_site2178],8.08 ± 0.28
8,TACACGCTAAAATACACACACACACCCACATATATA [CACACA_site4153],8.04 ± 0.33
9,TTCCCTCCTCAAAATTGTACTAGAATAATAACATAA [XGTACX_site8765],7.79 ± 0.19
10,TTTTTTAAACATATTATGTGTATTACATAGTTATGC [XGTACX_negctrl_site596],7.65 ± 0.48
11,TTATAATATTATAAAATAACATTTATTAATTATTGG [CACACA_negctrl_site1794],7.39 ± 0.4
12,TTATTATATTAAAATTGTACTTGCTTTCAATATGAT [XGTACX_site5305],7.61 ± 0.28
13,TAAACGTTATATAGTGCATGTCATATTTTATTATAT [TGCATGCA_site935],8.37 ± 0.56
14,ACGATGCATTAATCTGCACACCACAACAAAACGTTT [CACACA_site899],9.47 ± 0.014
15,AATCATTTTATTATCCTAACAAAAAAAAAATATATT [CACACA_negctrl_site115],7.43 ± 0.41
16,ACAACGCGTTAAATGTGTACATATTTATAAGTATAT [XGTACX_site8777],7.91 ± 0.34
17,AGCTATGTATTCTACACACACATACAGACATATATA [CACACA_site3428],7.96 ± 0.67
18,TTTGCATTTCTTAATTGTACTTAAAAAAAAAATAAT [XGTACX_site758],7.88 ± 0.2
19,TATACCAATGAATGAGTGCAAAGAAGATAAGGAAAA,9.91 ± 0.23
20,AAGGTATTTATAACTACACACTTATTTATAACCTAA [CACACA_site6194],7.49 ± 0.56
21,AATAAAATGAAATGAAATAAAAAAAAAAAAAAAATG [TGCATGCA_negctrl_site305],7.69 ± 0.37
22,ACTTATTGTGGTTTTGCATGTAGCATTTTTACATAC [TGCATGCA_site247],8.62 ± 0.91
23,AAAAAAAAAAAAAAATTAAAGTAATGGAAAAAAAAA [CACACA_negctrl_site1666],7.79 ± 0.6

row,Sequence,gcPBM binding intensity (ln)
1,TATATTATAAACATATGTACATATGTATAAATACAT [XGTACX_site722],7.75 ± 0.35
2,AACATATATATATACACACACATATATATATGAAAT [CACACA_site279],7.74 ± 0.3
3,ATTATTAATATTATATGTACGCACTATATCAAGGCT [XGTACX_site6468],8.82 ± 0.028
4,ATATTATAATTAAAACGTACGTATTTATGAATTCAT [XGTACX_site1047],7.91 ± 0.38
5,TATTAATTAAACCATACACACATAATTTTTTTATAA [CACACA_site843],7.64 ± 0.35
6,TACATAAATTAAAACACACACACACTAAAAAAAAAA [CACACA_site7130],8.31 ± 0.38
7,GTTAATATTTACTACACACACTTAAAATATGTATAT [CACACA_site4194],7.92 ± 0.6
8,TTTTCATTTTTCTTTACACACATATATTTATTTATA [CACACA_site7119],8.19 ± 0.36
9,TATATATATATTGAAGTGCAAAATACTGTACGTAAT,9.98 ± 0.21
10,GAAATAATTTCATATACACACATATACATACATACA [CACACA_site1358],8.44 ± 0.72
11,AAAAGAATATAAAGATACATTGTGATATGGGACAAA [CACACA_negctrl_site405],7.8 ± 0.66
12,TATATATATATAAACAGTACACAAATTGTAAATAAA [XGTACX_site8268],9.11 ± 0.085
13,TTAATTCTACTTATTACACACATATTAATCAAAAAT [CACACA_site1478],7.89 ± 0.35
14,TATATATATATATATATTGAAATTTATAATAATATT [TGCATGCA_negctrl_site407],9.09 ± 0.26
15,ATTTTTTTATGTACACAAAAAAAAAAAAAAATTTAA [CACACA_negctrl_site1028],7.99 ± 0.099
16,AACATAGAAACGTTATGTACATATTGAAGGATATTA [XGTACX_site6015],7.82 ± 0.52
17,AAATATTTATACTATACACACCCAATTTAAAAAAAA [CACACA_site6669],7.95 ± 0.47
18,ATTTCTAGTTTAAGATGTACTTTAATAAAAATTATT [XGTACX_site4820],7.66 ± 0.46
19,ATCTTTGGAAATTTATGTACTTATATTTATATTGTA [XGTACX_site6606],7.71 ± 0.57
20,AAATATCAACAAAAATGTACAAATGTAAAAGAATAT [XGTACX_site4676],8.02 ± 0.69
21,ACTATACAGTTATACACACACATATATATATAATAT [CACACA_site310],8.25 ± 0.49
22,TTTTTTTTTTAATAAAGTACATATAAATTACCTAAT [XGTACX_site4434],7.71 ± 0.54
23,AGGTTAAAAATAAATACACACATTTTATGTCTGTAT [CACACA_site996],7.51 ± 0.61

row,Sequence,gcPBM binding intensity (ln)
1,AAATGAGTATTCATATGTACACAAATAAAAAATTAA [XGTACX_site2968],7.77 ± 0.48
2,ATGGAAGGAAACAATAAAAAAAAAAAAAAATATATA [XGTACX_negctrl_site594],7.5 ± 0.28
3,CATTTAAAGGACAAGCTGCACTTACAAAATAAAAAA,8.68 ± 0.21
4,AATGACAACCTTGTCACACATATATATATATATATA [CACACA_site5977],9.31 ± 0.45
5,TTTTTTATTTGACAAGCACACACTTAAATATATATA [CACACA_site3358],8.07 ± 0.52
6,ATTTTTATATAATGAACACACATATTATATCATTTA [CACACA_site1572],7.67 ± 0.69
7,AAAAGAAAATAAGAAACACACAAAAATATGTAAAAA [CACACA_site7694],7.45 ± 0.88
8,TTAGTCATATATATATGTACACACATATATATATTT [XGTACX_site2948],7.62 ± 0.43
9,AAAATCCACATTTTAGTACACACTTAAAAAATTATT [CACACA_site2955],8.05 ± 0.38
10,GAACATACTCAAATAGCACACACATAAATAAAAATG [CACACA_site9283],8.29 ± 0.38
11,TATATATATATAATATGTACATATAATCAACATTTT [XGTACX_site3915],8.93 ± 0.15
12,TTATATATATATATATGTACGAAAAAGAAAAAAAAG [XGTACX_site6761],8.01 ± 0.44
13,AAAAAAAAATACATATGTACATATACATATATATAT [XGTACX_site2975],8.9 ± 0.27
14,ATATTATATAAATATACACACATTGTTTTATAGCAT [CACACA_site2386],7.78 ± 0.59
15,ATATATTTAATTTATGGTACACATAATTTTTTTAGA [XGTACX_site848],7.83 ± 0.4
16,TATATATATATATATACACACATATATATAAATATA [CACACA_site2035],9.15 ± 0.4
17,TTAAAAAAAAGACACACACACATACACATATTTATA [CACACA_site7535],7.84 ± 0.33
18,CACAAAAGTAAGCACGCACACACAACCTGAAATAAA [CACACA_site166],8.21 ± 0.38
19,TAGTAATATATATTTTGTACATAAAATAATATATAA [XGTACX_site7971],7.76 ± 0.52
20,CGTTATTATCCACATACACACAGGAATAAAAAATTA [CACACA_site2883],8.05 ± 0.23
21,ATTTGAAATGCATGAACACACACAGCTATAAATGCA [CACACA_site8229],7.88 ± 0.66
22,TATATATGTTAAAACGTGCACATATATATATATATA [GTGCAC_site9589],10.1 ± 0.19
23,ATAAAATATAAAAAAAGTACAAAAAAAAAAAAAAAA [XGTACX_site6657],8.22 ± 0.22

row,Sequence,gcPBM binding intensity (ln)
1,ATATATGCATATTATACACACATATGTATATACATT [CACACA_site965],8.12 ± 0.56
2,ACCCATGATTGTTACAGTACTCTACTTTCTAATATA [XGTACX_site98],8.24 ± 0.69
3,AAACTGTCGCTCATAAAGAAGAATGAAATACATTAA [TGCATGCA_negctrl_site60],7.47 ± 0.58
4,TGGAGGTCAGTTCACAGTACCCAGGAAATCTACGGA [XGTACX_site1995],7.45 ± 0.67
5,TTTTCTGTATATTGTGTGCACACAATTAACAAAAAA [GTGCAC_site9817],10 ± 0.2
6,AAAAAAAAAAAAAATGCACACAATGGCTAGCTGTAC [CACACA_site2273],9.15 ± 0.071
7,ATATTGACAAATATTACACACATATATAAATATGTA [CACACA_site7835],7.7 ± 0.5
8,CCATAGATATTTTATACACACATATAACATATTAAT [CACACA_site6312],7.74 ± 0.45
9,ATATAATATTACACAAGTACAAAAATTAATACTAAA [XGTACX_site482],7.69 ± 0.38
10,ATTTATTTTAATATATGTACATATATTTTTTTATTA [XGTACX_site3389],7.79 ± 0.41
11,TATAACTTTTATAGGTGTACCCAATATTATATATAG [XGTACX_site7673],7.92 ± 0.028
12,TATATATAATAAGAAGGTACACGTAAGTAATAATTT [XGTACX_site934],8.33 ± 0.58
13,TTTATATGTTTTGTATTTTTAATAAATATTTTATTA [TGCATGCA_negctrl_site20],7.78 ± 0.55
14,CCATCTTTTTTACGATGTACAAGTATAAGGTATACG [XGTACX_site2697],7.76 ± 0.46
15,ATATATATATATGTATGTACACATATTTTTTAACTT [XGTACX_site431],9.205 ± 0.078
16,AAATAAATAAATTAACGTACATAATAACATTAATAT [XGTACX_site8567],7.68 ± 0.23
17,TTATATTATAGACACACACACAAAAAAAAAAAAAAA [CACACA_site3816],8.11 ± 0.48
18,TGTAAAACCTCCTACACACACCAATTAACTATTCTA [CACACA_site7074],7.7 ± 0.53
19,TATATATATATTATTAGTACTTATTTTTTTTCATAT [XGTACX_site1279],8.9 ± 0.13
20,AATATAATTATATGTGGTACAGAAATAATATAAAAT [XGTACX_site2366],8.22 ± 0.52
